Reference: PubChem BioAssay AID651567 (National Center for Advancing Translational Sciences (NCATS), 2012)
Screen size: about 1,200 compounds; about 10 (0.8%) were called active. Another 4% or so got no clear call; they are omitted. Calls follow the shape of the dose curve; as a rule, active = well fitted inhibition curve with a large enough effect; inconclusive = small, poorly fitted or top-dose-only effect; inactive = no such curve, though single readings can be large or run the other way. The list shows a part of the results.

Test: qHTS Assay to Find Inhibitors of Chronic Active B-Cell Receptor Signaling: Hit Validation in OCI-Ly3 Assay
Details: OCI-Ly3 IkB-luciferase reporter, Chroma-Glo luminescence, 4 h; series mostly up to 46.1 µM; activity change, negative = inhibition: at the top concentration
Outline: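 Readout is dual-colour luminescence: IkB-alpha-luciferase fusion (green) against unfused luciferase (red), plus their ratio, scaled between basal cells and 10 uM MG-132. OCI-Ly3 cells, 0.5% FBS IMDM, compound with doxycycline (80ng/ml solution), 4 hrs at 37C; curves fitted and classed.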
% is scaled to controls: 0 for no effect and ±100 for the full control effect.

Activity change, negative = inhibition, inactive:
COc1ccc(C)cc1NC(=O)CNC(c1ccccc1)c1ccc(C)cc1 (configuration not stated) -3.67%, CCN(c1ccccc1)S(=O)(=O)c1ccc(C(=O)NC2CCN(Cc3ccccc3)CC2)cc1 -2.07%, CC1=CC(C)(C)N(S(=O)(=O)c2ccc(C)cc2)c2cc(C)ccc21 -2.26%, O=C1NC(=O)C(=C2CCCCCC2)S1 0.0471%, O=C(N/N=C/c1ccc([N+](=O)[O-])o1)c1cc(-c2ccc(-c3ccccc3)cc2)nc2ccccc12 -0.34%, CCOc1ccc2c(c1)C(C)=CC(C)(C)N2S(=O)(=O)c1ccc(C)cc1 -2.31%, CCOC(=O)CSc1nc(C)c2cccc(C)c2n1 0.225%, COc1cc(OC)c2c(-c3cccc(-c4cccc(N)c4)c3)cc(=O)oc2c1 -12.3%, COc1cc2c(c(OC)c1OC)C(c1ccc(C)cc1)CC(=O)O2 (configuration not stated) -3.11%, COc1ccc(-c2sc3cc(OC)c(OC)cc3c2C#CC(C)(C)O)cc1 -1.02%, CSc1ccc(COC(=O)c2cc([N+](=O)[O-])ccc2N2CCOCC2)cc1 -2%, CCCC(=O)O[C@]1(C(=O)CO)CC[C@H]2[C@@H]3CCC4=CC(=O)CC[C@]4(C)[C@H]3[C@@H](O)C[C@@]21C -1.65%, COc1ccc(-c2nn(-c3ccccc3)cc2/C=C/C(=O)O)cc1[N+](=O)[O-] 0.307%, CCOc1ncccc1C(=O)N1CCN(c2cccc(C)c2C)CC1 -3.74%, O=C1NC(=Nc2ccc(O)cc2)S/C1=C\C=C\c1ccco1 -4.14%, CCOC(=O)C(NC(=O)N(C)C)(Nc1sc(C)c(CC)c1C#N)C(F)(F)F (configuration not stated) -1.3%, NCCNC(=O)Cc1ccc(NC(=O)Cc2ccc(Nc3ncnc4c3ncn4[C@@H]3O[C@H](CO)[C@@H](O)[C@H]3O)cc2)cc1 -0.207%, CCOc1cc(Br)c(C=O)cc1OCC -4.55%, COc1cc(C(=O)N2CCN(c3cc(Cl)ccc3Cl)CC2)cc(OC)c1OC -4.65%, Cc1cc(=O)[nH]c2ccc(S(=O)(=O)Nc3ccc(O)cc3)cc12 -0.264%, COc1ccc(N(C(=O)c2ccccc2C)S(=O)(=O)c2cccs2)cc1 -2.69%, Cc1cccc(C)c1OCC(=O)N/N=C/C=C/c1ccco1 -0.431%, COc1cccc2sc(Nc3nnc(-c4ccccc4Cl)o3)nc12 16%, CCCCNC(=S)NNC(=O)CCn1nc(C)c(Br)c1C -1.2%, COc1ccccc1C1=NOC(COc2ccc3c(C)cc(=O)oc3c2)C1 (configuration not stated) -3.45%, COc1ccc(S(=O)(=O)N2CCOCC2)cc1NC(=O)/C=C/c1ccc(F)cc1 -0.49%, COc1ccc(Nc2nc(-c3c(C)nc4ncccn34)cs2)cc1 -6.49%, O=C(NC(=S)NC1CCSC1=O)c1cccs1 (configuration not stated) -1.27%, CCO[C@H]1OC(C(=O)NCc2nc3ccccc3[nH]2)=C[C@@H](C2CC2)[C@@H]1CCCO -0.732%, O=C(Nc1ncc(Cc2ccc(SC(F)F)cc2)s1)c1ccc(OC(F)F)cc1 0.809%, COc1ccc(CN(C)C(=O)Cn2cnc3c(NCc4ccccc4)ncnc32)cc1OC -0.481%, NC(=S)N=Nc1c(O)n(Cc2ccc(F)cc2)c2ccccc12 -12.9%, COc1ccc(-c2nnc(SCC(=O)NCc3ccccc3)nc2-c2ccc(OC)c(OC)c2)cc1OC -2.42%, COc1ccc(CCNC(=O)C(=O)c2c(C)n(C)c3ccccc23)cc1OC -0.335%, Cc1ccc(/C(C#N)=C\c2ccc(N3CCOCC3)o2)cc1 -6.61%, Cc1ccccc1NCC(=O)c1ccc(Br)cc1 -0.332%, CCOc1cc(C(=O)N/N=C(\C)Cc2ccc(OC)cc2)cc(OCC)c1OCC -0.984%, Cc1cccc(-n2c3nc(=O)[nH]c(=O)c-3cc3cc([N+](=O)[O-])ccc32)c1 -5.22%, O=C(NC(=S)N1CCOCC1)c1cn(-c2ccccc2)nc1-c1ccccc1 -2.27%, COc1ccc(-c2csc(C3=C(O)CN(CCCN4CCCC4=O)C3=N)n2)cc1OC -0.974%, COc1cc(OC)cc(C(=O)NCc2ccc3c(c2)CCN3C(=O)c2ccccc2)c1 -1.1%, O=C(CSc1cccc[n+]1[O-])c1ccc(Cl)s1 -0.515%, O=C(/C=C/c1ccco1)NC(=S)Nc1cccc(-c2nc3ccccc3o2)c1 -3.6%, COc1ccc(NC(=S)N/N=C/c2ccc(F)c(F)c2)cc1 -0.784%, Cc1ccc(NC(=S)NNC(=S)Nc2ccc(C)cc2C)cc1 -5.8%, CCOc1ccccc1N=NC1C(=O)N(C(N)=S)N=C1C (configuration not stated) 0.548%, CCOC(=O)c1[nH]c(C)c(C(=O)Nc2cc(Cl)ccc2C)c1C -1.25%, CCCc1noc2c1C(c1ccoc1)C(C#N)=C(N)N2 (configuration not stated) -1.84%, COc1ccccc1CNC(=O)CSc1ccc(Br)cc1 0.0236%, Cc1nn(CCC(=O)NNC(=S)Nc2ccccc2)c(C)c1Br 0.0269%, Cc1c(C(=O)OCC(C)C)[nH]c2c1C(=O)CC(c1cccs1)C2 (configuration not stated) -0.184%, CCC(C)n1c(NC(=O)c2ccccc2)c(C#N)c2nc3ccccc3nc21 (configuration not stated) -1.44%, C[C@H](Cc1ccccc1)Nc1ncnc2c1ncn2[C@@H]1O[C@H](CO)[C@@H](O)[C@H]1O -0.284%, COc1cc(-c2c(-c3cc(OC)c(OC)c(OC)c3)noc2C)ccc1F -4.21%, Oc1cccc(Nc2nc(N3CCOCC3)nc(N3CCOCC3)n2)c1 -3.59%, NC(=S)N/N=C/c1ccccc1OC(=O)/C=C/c1ccccc1 -2.49%, O=C(c1cc([N+](=O)[O-])ccc1N1CCOCC1)N1CCN(c2ccccc2)CC1 -2.33%, COc1ccc(-c2c(C)c3ccc(O)cc3oc2=O)cc1OC 1.38%, Cc1ccc(Cl)cc1NC(=S)N/N=C/c1cccc2ccccc12 -2.62%, Cc1cc2c(cc(C(=O)OCC(=O)NCc3cccs3)n2C(C)C)o1 -2.7%, COC(=O)c1cc(C#N)c(N(C)Cc2ccccc2)nc1C -1.12%, O=C(N/N=C/c1ccc(O)cc1)c1[nH]c2ccc(Br)cc2c1-c1ccccc1 -7.64%, CCCCCOC(=O)c1[nH]c2c(c1C)C(=O)CC(c1ccco1)C2 (configuration not stated) -1.57%, NNC(=O)/C(=C\c1ccco1)NC(=O)c1ccco1 -1.05%, Cc1ccc2[nH]c(-c3ccccc3)cc(=O)c2c1 -6.88%, Cc1csc(NC(=S)NC(=O)c2ccccc2)n1 -1.5%, CC[C@@H]1Cc2cc(O)ccc2C2=C1c1ccc(O)cc1C[C@H]2CC 0.595%
